Source: patent publication US11655268B2, “Nucleoside or nucleotide derivatives, and uses thereof” (ST Pharm Co., Ltd., priority 2018, dated 2023)

Columns and labels:
[1] = tested on: Influenza virus A/Puerto Rico/8/34 (H1N1); assay: Cytopathic effect reduction, influenza A H1N1 (PR8) in MDCK cells, MTT; settings: for Selectivity index FluA H1N1 (PR8): CC50/EC50; for EC50: read-out: Anti-Flu activity EC50 FluA H1N1 (PR8), MDCK cells, day 3 post-infection
[2] = tested on: Influenza virus A/HongKong/8/68 (H3N2); assay: Cytopathic effect reduction, influenza A H3N2 (Hong Kong) in MDCK cells, MTT; settings: for Selectivity index FluA H3N2 (Hong Kong): CC50/EC50; for EC50: read-out: Anti-Flu activity EC50 FluA H3N2 (Hong Kong), MDCK cells, day 3 post-infection

SMILES | Selectivity index FluA H1N1 (PR8) [1] | EC50 [1] [µM] | Selectivity index FluA H3N2 (Hong Kong) [2] | EC50 [2] [µM]
O=C(Nc1ccn(C2O[C@H](CO)[C@@H](O)[C@H]2F)c(=O)n1)c1ccc(C(F)(F)F)nc1 (stereo in doubt) [Example 41, N-(1-((2S,3R,4R,5R)-3-fluoro-4-hydroxy-5-(hydroxymethyl)tetrahydrofuran-2-yl)-2-oxo-1,2-dihydropyrimidin-4-yl)-6-(trifluoromethyl)nicotinamide] | >2.2 | 46.3 | >6.3 | 16
O=C(Nc1ccn([C@@H]2O[C@H](CO)[C@@H](O)C2(F)F)c(=O)n1)c1ccc(F)cn1 [Example 9, N-(1-((2R,4R,5R)-3,3-difluoro-4-hydroxy-5-(hydroxymethyl)tetrahydrofuran-2-yl)-2-oxo-1,2-dihydropyrimidin-4-yl)-5-fluoropicolinamide] | >11.4 | 8.8 | >22.7 | 4.4
Cc1ccc(C(=O)Nc2ccn([C@@H]3O[C@H](CO)[C@@H](O)C3(F)F)c(=O)n2)cn1 [Example 4, N-(1-((2R,4R,5R)-3,3-difluoro-4-hydroxy-5-(hydroxymethyl)tetrahydrofuran-2-yl)-2-oxo-1,2-dihydropyrimidin-4-yl)-6-methylnicotinamide] | >166.7 | 1.8 | >150.0 | 2
O=C(Nc1ccn(C2O[C@H](CO)[C@@H](O)[C@H]2F)c(=O)n1)c1cccc(-c2ccccc2)n1 (stereo in doubt) [Example 27, N-(1-((2S,3R,4R,5R)-3-fluoro-4-hydroxy-5-(hydroxymethyl)tetrahydrofuran-2-yl)-2-oxo-1,2-dihydropyrimidin-4-yl)-6-phenylpicolinamide] | >5.0 | 20.1 | >6.4 | 15.7
Cc1cncc(C(=O)Nc2ccn(C3O[C@H](CO)[C@@H](O)[C@H]3F)c(=O)n2)n1 (stereo in doubt) [Example 34, N-(1-((2S,3R,4R,5R)-3-fluoro-4-hydroxy-5-(hydroxymethyl)tetrahydrofuran-2-yl)-2-oxo-1,2-dihydropyrimidin-4-yl)-6-methylpyrazine-2-carboxamide] | >4.2 | 23.6 | >17.9 | 5.6
O=C(Nc1ccn([C@@H]2O[C@H](CO)[C@@H](O)C2(F)F)c(=O)n1)c1cccnc1 [Example 1, N-(1-((2R,4R,5R)-3,3-difluoro-4-hydroxy-5-(hydroxymethyl)tetrahydrofuran-2-yl)-2-oxo-1,2-dihydropyrimidin-4-yl)nicotinamide] | >14.3 | 21 | – | –
O=C1CCCN1c1ccn([C@@H]2O[C@H](CO)[C@@H](O)C2(F)F)c(=O)n1 [Example 7] | >7.1 | 14.1 | >6.5 | 15.4
Cl.Nc1ccc(C(=O)Nc2ccn([C@@H]3O[C@H](CO)[C@@H](O)C3(F)F)c(=O)n2)nc1 [Example 20, 5-amino-N-(1-((2R,4R,5R)-3,3-difluoro-4-hydroxy-5-(hydroxymethyl)tetrahydrofuran-2-yl)-2-oxo-1,2-dihydropyrimidin-4-yl)picolinamide-hydrochloride] | >10.3 | 9.7 | >5.3 | 18.8
O=C(Nc1ccn(C2O[C@H](CO)[C@@H](O)[C@H]2F)c(=O)n1)c1cccnn1 (stereo in doubt) [Example 33, N-(1-((2S,3R,4R,5R)-3-fluoro-4-hydroxy-5-(hydroxymethyl)tetrahydrofuran-2-yl)-2-oxo-1,2-dihydropyrimidin-4-yl)pyridazine-3-carboxamide] | >10.0 | 10 | >38.5 | 2.6
